In PubChem BioAssay (NCI):
The source holds several records for some structures; these can differ, active in one and inactive in another.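 Compound tested at a single concentration for 48 hours in 96-well plates; a percent growth value below 10 was scored as active.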 For part of its entries the source gives two or more results. They are shown here; other results are not. An entry can have further records. The screen tested this drug many times, at the concentration stated with the values; each value is one run. Brackets with × say how often a value occurs here.

Tested on: M14 melanoma
Test: NCI-60 one-dose screen, 48 h (100 = growth as untreated, 0 = no growth, -100 = all killed)

## COc1cccc2c1C(=O)c1c(O)c3c(c(O)c1C2=O)C[C@@](O)(C(=O)CO)C[C@@H]3OC1CC(N)C(O)C(C)O1 (stereo not given in full)
0.25 µM, runs of 2009
  growth: inactive: 46.2 (2×), 40.2 (2×), 46.7, 41.7, 38.8, 50.9, 47.4, 39.3, 42.3, 52.2, 52, 41.1, 36.8 (2×), 41.9, 47.9 (2×), 40.4, 40.1 (2×), 29.3, 31.3, 30.1 (2×), 46.8, 38.9, 44.9, 52.3, 57.8, 42.1, 42.4, 60.4, 33.1, 40.5, 36, 35.7, 29.6, 36.6, 35.2, 30.5, 24.8, 35.3, 41, 33.2, 36.9, 32.3, 40, 38.6, 21.4, 40.3, 45.9, 30.6, 66.3, 48.1, 45.5, 54, 38.2, 51.3, 44.2%
0.25 µM, runs of 2010
  growth: inactive: 50.7, 55, 44.9, 49.3, 48.9, 51.5, 48.6, 53.2, 62, 57.6, 55.5, 56.9, 57.5, 51.9, 52.6 (2×), 48.2, 46.1, 43.6, 53.9, 62.7, 37, 40.3, 29.5, 38.9, 37.1, 33.9, 38.8, 39.7, 44.7, 49.9 (3×), 43.4, 36.8, 48, 53.7, 47.5, 50.2 (2×), 50.1, 42.8, 45.9, 46.3, 57.4, 54.2, 58.3, 53.3, 53.8, 50.8, 51.6, 54.1, 49.5, 53.4, 51.8, 52.2%
0.25 µM, runs of 2011
  growth: inactive: 51.2 (2×), 47.4 (2×), 40.1, 61.1 (2×), 46, 58.9, 52.3, 53.4, 62 (2×), 51.6 (3×), 64.3, 54.1, 59.1, 57.3, 44.2, 56.5, 60.9, 56.6, 62.5, 60.8, 63.5, 62.7, 65.3, 57.4, 55.4, 39.2, 56.4, 60.4, 44 (2×), 46.4, 43.3, 48.6, 47, 44.8, 43.6, 43.9, 42.5, 43.7, 44.6, 53.7, 37.3, 56.9, 59.9, 48.8, 52.4, 46.2, 54, 51.7%
0.25 µM, runs of 2012
  growth: inactive: 56.1, 41.3, 48.9, 42.5, 55.1, 56.2, 48.3, 59.3, 60, 45.1 (2×), 43.7, 36.8, 43.5, 46.5, 40.9, 47.3, 49.8, 57 (2×), 54.4, 50.4, 52.2 (2×), 52.4, 51.4, 48, 51.7, 44, 46.3, 29.4, 47.4, 59.2, 50.6, 66.4, 50 (2×), 54.7, 52.5, 68.6, 69.2, 61.9, 66.7, 63.4, 64.3, 63.7, 67.1, 69.5, 61.5, 69.6, 63.1, 66.3, 71.4, 46.1, 47.6, 46.2, 49.4, 44.6, 53.7, 49.5, 42.7 (2×), 45.9, 46.9, 42.2%
0.25 µM, runs of 2013
  growth: inactive: 46.8, 40, 45.1, 45.7, 42.7, 47.4, 44.8, 60.3, 53, 59.2 (2×), 63, 60.2 (2×), 61, 56.5 (3×), 52.2, 55.6, 55.9, 59.5, 59.8, 49.2, 52, 53.7, 48.9 (2×), 55.7 (2×), 51.2 (2×), 62.1 (3×), 57.7, 49.8 (2×), 56.8, 61.6 (2×), 64.1, 58.2, 62.7, 59.7 (2×), 56.2 (2×), 58.1, 56.4, 58.6, 56.9, 61.1, 55.4, 66.7, 62.5, 65.8, 72.3, 63.1, 58, 40.8, 53.6, 47.2, 54.5, 50.6, 33.6 (2×), 40.6, 23.6, 21, 23.7, 30.2, 23.3%
0.25 µM, runs of 2014
  growth: inactive: 41.2, 45, 26.1, 24.6, 37.9, 29.7, 24.2, 31.2 (2×), 37.4 (2×), 29.4, 25.1, 40.2, 33.7 (2×), 24.3, 42.7 (2×), 26.2, 37, 34.1, 37.7, 40.6, 39.5 (2×), 37.8 (2×), 49.4, 45.1, 43.5, 39.4, 42 (2×), 46.3, 41.7, 41.9, 47.4, 33.2, 32.5 (2×), 44.9, 43.7, 29.9, 31.4, 46.5, 34.6, 31.1, 35.7, 30.2, 38.6 (2×), 36.8, 31.7, 42.3, 33, 45.4, 37.1, 45.5, 40.5, 43.9, 37.5 (2×), 42.5, 40, 45.6, 40.3, 41.3, 47.9, 40.8, 44.1, 33.9%
0.25 µM, runs of 2015
  growth: inactive: 42.5 (2×), 37.4, 40.6, 38 (3×), 48.8, 45.9, 44.6, 38.2 (2×), 34.9, 40.1, 31.7, 37.5 (2×), 48.7, 30.6, 28.4 (2×), 32.3, 32.4 (2×), 26.6, 39.4, 37.3, 47.5, 31.1 (2×), 27, 24.8, 34 (2×), 37.9, 38.8, 46 (2×), 46.7, 35.2, 37.6, 37.8, 41.7, 34.1 (2×), 27.6, 32, 28.5, 22.6, 32.9, 28.6, 26.7, 24.2, 28.2, 34.2, 49.6 (2×), 33, 34.4, 42, 44.2, 45.2, 51.6, 40.3, 41.3, 40.4, 33.7, 33.5, 25.9, 42.6, 40.5, 37.7, 39.5, 49.9, 38.9, 53, 54%
0.25 µM, runs of 2016
  growth: inactive: 45.4, 52 (3×), 41.6, 47.1, 47.4 (2×), 57.1, 36.9 (2×), 37.7, 44.8 (2×), 36, 44.6, 32.9, 41 (2×), 29.2, 33.7, 28.6, 34.4, 27.7, 30.4, 33.4, 32.2, 25.4, 28.5, 37.8, 30.8, 35.2, 31.6, 37.6, 36.5, 41.3, 40.8, 40.3, 38, 31.7, 43.3, 44.2, 50.2 (2×), 46, 44.9, 49.6, 58.2, 43.4, 45, 42.5, 44.7 (2×), 38.5, 46.2, 42.8, 47.3, 47.2, 53 (2×), 46.7, 51.3, 55.1, 58.6, 45.7, 56.5, 55.3, 53.8, 54.9, 51, 56, 59.4, 60.4, 54.3, 48.7, 42.2, 46.5, 41.2, 42.3, 41.7, 49.2%
0.25 µM, runs of 2017
  growth: inactive: 57, 58.3, 51.4, 55.8, 46.7, 49.8 (3×), 37.2, 38.8 (2×), 46, 34.2, 41.8 (2×), 36.1, 29.9, 36.9, 38.6, 36.8, 40, 32.5 (2×), 35.2 (2×), 33, 31.7, 40.9, 34, 33.7, 27.3, 41.9, 49.3, 50, 45.1, 40.8, 44, 45.4, 48.6, 52.5, 44.3, 38.1, 47.6, 37.8, 42.6 (2×), 44.7, 40.2, 37.6 (2×), 40.5, 39.2, 44.8, 46.2, 43.9, 51.3, 51.8, 52.8, 45.9, 31, 31.5, 42, 26.7, 36.4, 31.4, 32.6, 34.9, 33.2, 35.3 (2×), 47, 45, 34.1, 39.7, 27.7, 25.2%
0.25 µM, runs of 2018
  growth: inactive: 40.7, 43.6 (2×), 49.9, 50, 42.8, 39.3, 34.4, 39.2, 46.8, 36.7, 36, 40.4, 35.7 (2×), 33.6 (2×), 56.6, 37, 53.2, 52.4, 46.1, 45.2 (2×), 40.6, 41.7, 37.3, 38.5 (2×), 40.2, 45.8, 47, 50.4, 46.5, 43.4, 38.3 (2×), 39.4, 38.1, 37.4, 41.8, 38.9, 22.4, 27.5%
0.25 µM, runs of 2019
  growth: inactive: 36.5, 31.6, 27.1, 33.4, 33.6, 26.9 (2×), 29, 28.7, 25.8, 33.7 (2×), 31.5, 32.5, 30.5, 32, 24.6, 38.1, 41.8, 34.3, 41.7, 47, 33.1, 41.2, 40.5, 37.3, 34.2, 31.2, 32.3, 40.1, 37.9 (2×), 35.7, 32.2, 34, 38, 41.1, 78.3, 76.2, 37.8, 40.2, 34.1, 28.2, 27.2, 29.5%
0.25 µM, runs of 2020
  growth: inactive: 31.2, 22.4, 42.5, 40.5, 40.1 (2×), 42.1 (2×), 40, 34.7, 38.2, 47.3, 43.3, 39.3, 53.6, 39.7, 41, 53, 33.4, 40.8, 41.2, 42.8%
0.25 µM, runs of 2021
  growth: inactive: 42.1, 50.8 (2×), 39.9, 32.4, 21.8, 23.4, 41.7, 44.9, 40.3, 41.8 (2×), 41.1 (2×), 45.9, 44, 41.6, 44.7, 32.2, 32.5 (3×), 28.5 (2×), 31.6, 36.7, 34.3, 37.5, 40.6, 28.2, 41.3, 45, 54.9, 59.5, 27.6, 29.2, 30.4, 33.5, 28.4, 19.9, 24.4, 18.5, 30.8, 30.3%
0.25 µM, runs of 2022
  growth: active: 6.8%, -2.3%, -3.81% and inactive: 42.4, 27.2, 17.3, 30.2, 37.9, 49.3, 38.6, 38, 52.8, 43.9, 24.6, 25.9, 20.1, 50, 35.2, 52, 60.2, 78.9, 38.8, 32.9, 33.1, 24.9%
25 µM, runs of 1991
  growth: active: -59.2, -88.4, -99.5, -83.8, -100, -91.5, -87.9, -79.4, -95.6, -96.9, -84.8, -95.8, -96.7 (2×), -97.8, -67.9, -96.8, -63.8, -97.6%
